Structures are written as SMILES.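 Exposure lasted 48 hours, with cells grown in 96-well plates and compounds tested at five concentrations. GI50 = concentration required for 50% inhibition of growth. TGI: total growth inhibition.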

The test system of this test is NCI-H322M lung. Nature of the test: growth of human tumour cells (NCI), 48 h.
The compound `O=c1oc2ccc([N+](=O)[O-])cc2c(Nc2ccc3c(c2)Oc2ccccc2O3)c1[N+](=O)[O-]` gave a TGI greater than 100 µM.

In turn, `On1c(-c2ccccc2)nc2ccccc2c1=S` came in with a TGI greater than 100 µM.

As for `CN(C)CCN1C(=O)c2ccc3c4c(ccc(c24)C1=O)C(=O)N(CCN=C=S)C3=O`, the GI50 was 0.11 µM and the TGI was found to be 0.574 µM.

As for `O=C1/C(=C/c2cccc([N+](=O)[O-])c2)COc2ccc(Br)cc21`, the TGI was greater than 100 µM.

`O=c1c2cc(Br)cc(Br)c2nc(CCCl)n1CCO` came in with a TGI greater than 100 µM.

With `COc1ccc(-c2nn(-c3ccc(NC(=O)Nc4cc(C(F)(F)F)cc(C(F)(F)F)c4)cc3)cc2-c2ccncc2)cc1Cl`, the GI50 is 3.27 µM and the TGI is greater than 100 µM.

Compound `COc1ccc(C2OC(c3ccncc3)=NN2C)cc1OC` (configuration not stated) returned a TGI greater than 100 µM.

As to `COc1cccc(/C=N/n2c(C)n[nH]c2=O)c1`, the TGI was greater than 100 µM.

For `C=CC[C@]12C=C(OC)[C@@H](O)[C@](OC)(C(c3cc(OC)c4c(c3)OCO4)[C@H]1C)[C@H]2OC(C)=O` (some centres not stated), the TGI is greater than 100 µM.

As to `CCNC(=O)Nc1cccc(NC(=O)NCC)n1`, the TGI was greater than 100 µM.

In turn, `COc1c(CCl)cc(-c2cc(=O)c3ccccc3s2)cc1CCl` displayed a TGI greater than 100 µM.

The compound `COc1ccc2c(c1)CCN1CCc3ccccc3CC21` (configuration not stated) had a TGI greater than 100 µM.

In turn, `CSc1cnc2ccccc2c1SC1CN(Cc2ccccc2)c2ccccc2C1=O` (configuration not stated) gave a TGI greater than 100 µM.

Compound `O=C(Nc1c(Cl)cc([N+](=O)[O-])cc1Cl)C(=O)C(C1OC(=O)c2ccccc21)[N+](=O)[O-]` (configuration not stated) came in with a TGI greater than 100 µM.

As for `Cc1ccc(-c2nc3ccc(Cl)cc3c(=O)n2N2C(=O)CSC2c2ccccc2Cl)cc1` (configuration not stated), the GI50 was 17.4 µM and the TGI was greater than 100 µM.

In the case of `Cn1c(=O)c(Cc2ccccc2F)cc2cnc(NC3CCOCC3)nc21`, the GI50 was greater than 25 µM and the TGI is greater than 25 µM.

In the case of `C1CCC([PH+](C2CCCCC2)C2CCCCC2[PH+](C2CCCCC2)C2CCCCC2)CC1.O=C(C1[CH-]CCCC1)C1CCCC[N-]1.[Au]` (configuration not stated), the GI50 was 0.305 µM and the TGI worked out at 1.24 µM.

Turning to `C=CCc1ccc(Oc2cc(CC=C)c3c(c2O)O[C@@H](CO)[C@H]3c2ccc(O)c(-c3cc(CC=C)ccc3O)c2)cc1`, the TGI is greater than 100 µM.

On to `Nc1ccc(S2(c3ccc(N)cc3)C=C(c3ccccc3)C(c3ccccc3)=C2)cc1`, for which the TGI is greater than 100 µM.

Compound `O=C1CC2CCCC23CC2(CCN13)OCCO2` (configuration not stated) gave a TGI greater than 100 µM.

With `O=c1cc(NC2CCN(CCCc3ccccc3)CC2)c2cc(Cl)ccc2o1`, the GI50 is 19.4 µM and the TGI is 38.6 µM.

For the compound `Cc1ccc2[nH]c(O)c(N=Nc3ccc(S(N)(=O)=O)cc3)c2c1`, the GI50 is 16.7 µM and the TGI is greater than 25 µM.

Turning to `COc1ccc(CCN2COc3c([C@@H](C)CCC=C(C)C)ccc(C)c3C2)cc1OC`, the GI50 was 3.03 µM and the TGI is 11.6 µM.

With `COc1ccc(C(=O)COc2ccc(/C=C3\COc4ccc(OC)cc4C3=O)cc2)cc1`, the GI50 is greater than 100 µM and the TGI is greater than 100 µM.

As to `C[N+]12CCCCC1C(CN1C(=O)Cc3c4ccccc4c(c4ccccc34)CC1=O)CCC2` (configuration not stated), the TGI is greater than 100 µM.

Take `CSc1ncnc2c1ncn2CCC#N`: the TGI was greater than 100 µM.

In turn, `CN1[C@@H]2C[C@@H](OC(=O)[C@H](CO)c3ccccc3)C[C@H]1[C@@H]1O[C@@H]12` had a TGI greater than 100 µM.

In the case of `COc1ccc(C2COc3cc(O)c(O)cc3C2)cc1` (configuration not stated), the TGI was determined as 157 µM.

Compound `C/C(N=NC(=S)N(C)C)=C1\C=CC=CN1O` gave a GI50 of less than 0.1 µM and a TGI greater than 100 µM.

`C/C(CC(=O)NCCc1ccccc1)=N\NC(=O)C[n+]1ccccc1`: the TGI was greater than 100 µM.

As to `O=C(c1ccccc1)C1OC12C(=O)Nc1ccccc12` (configuration not stated), the TGI is greater than 100 µM.

For the compound `O=C1CCC(O)=C1N=Nc1ccccc1`, the TGI is greater than 100 µM.

Regarding `CN1C2CCC1CC(C)(O)C2` (configuration not stated), the TGI is greater than 100 µM.

As for `Cn1c(COC(=O)Nc2ccccc2)c(COC(=O)Nc2ccccc2)c2ccc3cc(Cl)c(Cl)cc3c21`, the TGI came to 26.1 µM.

Compound `NC(CCC(=O)NC(CSCC1C(=O)Nc2ccccc21)C(=O)NCC(=O)O)C(=O)O` (configuration not stated) yielded a TGI of 34.5 µM.

Turning to `CCOC(=O)c1ccc(C)c(N=NN(C)C)c1`, the TGI is greater than 100 µM.

Turning to `CCC(=O)ONC(=O)Cn1ccc([N+](=O)[O-])n1`, the TGI is greater than 100 µM.

`Cc1ccc(S(=O)(=O)NC(=O)N[C@@H](Cc2cnc[nH]2)C(=O)O)cc1`: the TGI was greater than 100 µM.

As for `CC(C)C[C@H](NC(=O)/C=C/Cn1ccc2ccccc2c1=O)B(O)O`, the GI50 is 77.3 µM and the TGI was greater than 100 µM.

Take `CC(C)CC(O)P(=O)(O)O` (configuration not stated): the TGI was greater than 100 µM.

For `CCSc1nc(SCC)c2cn[nH]c2n1`, the GI50 is greater than 100 µM and the TGI was greater than 100 µM.

`O=C1Nc2ccc(F)cc2/C1=C/c1ccc[nH]1`: the GI50 is 19.5 µM and the TGI was greater than 25 µM.

As for `ClCc1cccc(Cn2cnc3nc(Cl)nc(Cl)c32)c1`, the GI50 is 14.1 µM and the TGI came to 27 µM.

Source of the values: PubChem BioAssay (NCI).
